This note sets out measurements from PMC5892938.

Some of the results follow. Construct or isoform of the protein are uncertain.

This experiment deals with GST-SBP-ILF3 (Homo sapiens) (UniProt Q12906). Nature of the experiment: targeted RNA Bind-n-Seq. To be noted: RBNS binding buffer: 25 mM Tris pH 7.5, 150 mM KCl, 3 mM MgCl2, 0.1% Tween, 0.5 mg/mL BSA, 1 mM DTT; 27 nM protein, 750 pM RNA pool; temperature not stated; high values mean tight binding; sequences stand for … in GGGUAAAAGCGAGGUGAA…CGGGACAAGUAUUAUGGG
Consider “UUUUUUUUUUGAGAUGGAAGCUAUCUCCUA [tttttgagapaired]”, for which the binding signal (log2 fold change) was found to be 0.0438.
Next, “GGUGGUUGUGUUGGAUCCUAACACAGCUAC [gtspaired]”: -0.637; “UUUUUUUUUUGAGACCGAAACGGUUUUCUA [tttttgagapaired]”: 0.143.
Then “UUUUUUUUUUGAGAGCGAGCCGCUCUCCAG [tttttgagapaired]”, with -0.0152; and “UUUUUUUUUUGAGAGCGUAUCGCUCUCCUG [tttttgagapaired]”, with 0.0774.
Next, “UUUUUUUUUUGAGAUCGACACGAUCUCCUG [tttttgagapaired]”: 0.249.
With “UUUUUUUUUUGAGAUGGAGUCCAUUUCCUA [tttttgagapaired]”, the binding signal (log2 fold change) amounted to 0.099.
Next, “GUGUGUUGUGUUGGCUUCUAACACAACGCG [gtspaired]”: -0.663; “UUUUUUUUUUGAGAUGGUGUCCAUUUCCGG [tttttgagapaired]”: 1.08; “GUUGUGUGUGUUGGUGUCUAACACACACGA [gtspaired]”: -0.507.
As for “GUGUGUGGUGUUGGCCUCUAACACCGCGCG [gtspaired]”, the binding signal (log2 fold change) is -0.712.
In the case of “UUUUUUUUUUGAGACGGAUGCCGUCUCCUG [tttttgagapaired]”, the binding signal (log2 fold change) stood at 0.575.
Consider “UUUUUUUUUUGAGACUGAGACAGUCUCCUG [tttttgagapaired]”, for which the binding signal (log2 fold change) was 0.425.
Next, “GUUGUGUGUGUUGGCGCCUAACACACGCGA [gtspaired]”: -0.796.
Then “UUUUUUUUUUGAGAUCGUAGCGAUCUCCAG [tttttgagapaired]”, with 0.203; and “UUUUUUUUUUGAGAGCGGCACGUUCUCCAG [tttttgagapaired]”, with 0.481; and “UUUUUUUUUUGAGAGGGCGACCCUCUUCUA [tttttgagapaired]”, with 0.446.
Next, “UUUUUUUUUUGAGACGGUAACCGUCUUCUA [tttttgagapaired]”: 0.186.
In the case of “GUUGUGUGUGUUGGCCUCUAACACACGCAG [gtspaired]”, the binding signal (log2 fold change) is -0.779.
Then “GGUGGUGGUGUUGGAGCCUAACACCAUCGC [gtspaired]”, with -0.722; and “GUGUUGUGUGUUGGCGCCUAACACACAACG [gtspaired]”, with -0.255; and “UUUUUUUUUUGAGAAGGCUCCCUUCUCCAG [tttttgagapaired]”, with 0.0853.
Next, “GUGUUGUGUGUUGGACCCUAACACACAGCG [gtspaired]”: -0.232.
In the case of “UUUUUUUUUUGAGAGCGGCGCGCUCUUCUA [tttttgagapaired]”, the binding signal (log2 fold change) was 0.481.
Next, “UUUUUUUUUUGAGACUGCGGCAGUCUCCGG [tttttgagapaired]”: 0.558.
Take “UUUUUUUUUUGAGACUGGCACAGUCUCCUA [tttttgagapaired]”: the binding signal (log2 fold change) stood at 0.526.
Next, “GUGUGUGGUGUUGGCUCCUAACACCACGCG [gtspaired]”: -0.169; “UUUUUUUUUUGAGAGGGACACCCUCUCCAG [tttttgagapaired]”: 0.402.
